PMC11995724, “Antibiotic target discovery by integrated phenotypic and activity-based profiling of electrophilic fragments” (Cell chemical biology, 2025)
Screen size: about 3,200 compounds; about 75 (2%) showed an effect of 50% or more. The list shows a part of the results.

The compounds below were run on T1, S. aureus MSSA476. Settings: relative growth, OD600, TSB; 25 µM; inhibitor.
T1 construct: MSSA476
Design: species or system S. aureus MSSA476 (TSB) or V. cholerae SAD30 (LB); 384-well bacterial growth screen at 25 uM, OD600 relative to DMSO control
`CC(C)C(NC(=O)CCl)c1ccccc1` (stereo not shown) [4-K11, 2-chloro-N-(2-methyl-1-phenylpropyl)acetamide] was tested, and the “% of control remaining” value was 106.717%. With `C=CC(=O)Nc1cc(C)cc(S(C)(=O)=O)c1` [3-F14, N-(3-methanesulfonyl-5-methylphenyl)prop-2-enamide] the “% of control remaining” value was 108.663%. With `Cn1cc(C=C(C#N)C(=O)Nc2ccc(Oc3ccccc3)cc2)cn1` [9-M10, 2-cyano-3-(1-methyl-1H-pyrazol-4-yl)-N-(4-phenoxyphenyl)prop-2-enamide] the “% of control remaining” value was 94.0824%. `CC(Cl)C(=O)NCc1cnn2ccccc12` (stereo not shown) [7-M13, 2-chloro-N-({pyrazolo[1,5-a]pyridin-3-yl}methyl)propanamide] was tested, and the “% of control remaining” value was 91.9937%. In the case of `COc1ccccc1NC(=O)C(C#N)=Cc1ccco1` [8-H08, 2-cyano-3-(furan-2-yl)-N-(2-methoxyphenyl)prop-2-enamide], the “% of control remaining” value is reported as 91.9502%. With `N#CC(=Cc1ccc(Cl)c([N+](=O)[O-])c1)C(=O)N1CCCC1` [9-N05, 3-(4-chloro-3-nitrophenyl)-2-(pyrrolidine-1-carbonyl)prop-2-enenitrile] the “% of control remaining” value was 107.566%. `C=CC(=O)N1CCC(C(=O)N2CCC(C(=O)NCC(C)C)CC2)CC1` [3-C17, N-(2-methylpropyl)-1-[1-(prop-2-enoyl)piperidine-4-carbonyl]piperidine-4-carboxamide] was tested, and the “% of control remaining” value was 96.4737%. With `N#CC(=Cc1ccco1)C(=O)NS(=O)(=O)N1CCc2ccccc21` [9-J18, 2-cyano-N-(2,3-dihydro-1H-indole-1-sulfonyl)-3-(furan-2-yl)prop-2-enamide] the “% of control remaining” value was 71.0112%. With `C=CC(=O)NCc1nc(C2CC2)cs1` [2-A19, N-[(4-cyclopropyl-1,3-thiazol-2-yl)methyl]prop-2-enamide] the “% of control remaining” value was 138.207%. With `C=CC(=O)NCC(C)c1ncc(C)s1` (stereo not shown) [1-P10, N-[2-(5-methyl-1,3-thiazol-2-yl)propyl]prop-2-enamide] the “% of control remaining” value was 101.626%. `COCC1(NC(=O)C(C)Cl)CC=CCC1` (stereo not shown) [6-J13, 2-chloro-N-[1-(methoxymethyl)cyclohex-3-en-1-yl]propanamide] was tested, and the “% of control remaining” value was 98.6829%. For `O=C(CCl)Cc1cccc(Cl)c1` [10-E17, 1-chloro-3-(3-chlorophenyl)propan-2-one], the “% of control remaining” value was 119.375%. With `C=CC(=O)N1CCCCC1c1nc2ccccc2n1C` (stereo not shown) [3-F04, 1-[2-(1-methyl-1H-1,3-benzodiazol-2-yl)piperidin-1-yl]prop-2-en-1-one] the “% of control remaining” value was 107.619%. With `CC(Cl)C(=O)NCc1csc(-c2ccco2)n1` (stereo not shown) [7-K05, 2-chloro-N-{[2-(furan-2-yl)-1,3-thiazol-4-yl]methyl}propanamide] the “% of control remaining” value was 93.8776%. In the case of `CC(Cl)C(=O)N(C)Cc1ccnn1C` (stereo not shown) [5-L17, 2-chloro-N-methyl-N-[(1-methyl-1H-pyrazol-5-yl)methyl]propanamide], the “% of control remaining” value is reported as 119.49%. With `N#CC(=Cc1cc(F)ccc1F)C(=O)Nc1ccc(F)cc1` [8-E10, 2-cyano-3-(2,5-difluorophenyl)-N-(4-fluorophenyl)prop-2-enamide] the “% of control remaining” value was 122.158%. With `Cc1nn(CC(C)C)c(Cl)c1C1CCCN1C(=O)CCl` (stereo not shown) [5-L13, 2-chloro-1-{2-[5-chloro-3-methyl-1-(2-methylpropyl)-1H-pyrazol-4-yl]pyrrolidin-1-yl}ethan-1-one] the “% of control remaining” value was 83.0601%. For `CC(Cl)C(=O)Nc1ccccc1F` (stereo not shown) [5-L10, 2-chloro-N-(2-fluorophenyl)propanamide], the “% of control remaining” value was 117.304%. For `N#CCCN(C(=O)CCl)c1ccccc1F` [5-P07, 2-chloro-N-(2-cyanoethyl)-N-(2-fluorophenyl)acetamide], the “% of control remaining” value was 109.29%. For `Cc1cc(C=C(C#N)C(=O)N2CC[C@H](O)C2)c(C)n1CC1CCCO1` (stereo partly drawn) [9-P04, 3-{2,5-dimethyl-1-[(oxolan-2-yl)methyl]-1H-pyrrol-3-yl}-2-[(3S)-3-hydroxypyrrolidine-1-carbonyl]prop-2-enenitrile], the “% of control remaining” value was 100.674%. In the case of `O=C(CCl)NC1C=C(c2ccc(Cl)cc2)CCC1` (stereo not shown) [7-P08, 2-chloro-N-[3-(4-chlorophenyl)cyclohex-2-en-1-yl]acetamide], the “% of control remaining” value is reported as 75.0392%. `CC(Cl)C(=O)NCc1nnc(-c2ccncc2F)s1` (stereo not shown) [7-K18, 2-chloro-N-{[5-(3-fluoropyridin-4-yl)-1,3,4-thiadiazol-2-yl]methyl}propanamide] was tested, and the “% of control remaining” value was 102.355%. With `CCn1nc(C)c(CN(C)C(=O)CCl)c1C` [5-A10, 2-chloro-N-[(1-ethyl-3,5-dimethyl-1H-pyrazol-4-yl)methyl]-N-methylacetamide] the “% of control remaining” value was 92.5319%. `CCn1ncc(C(=O)CCl)n1` [10-E13, 2-chloro-1-(2-ethyl-2H-1,2,3-triazol-4-yl)ethan-1-one] was tested, and the “% of control remaining” value was 103.125%. In the case of `COc1cccc(NC(=O)C(C#N)=Cc2ccc(O)cc2)c1` [8-O17, 2-cyano-3-(4-hydroxyphenyl)-N-(3-methoxyphenyl)prop-2-enamide], the “% of control remaining” value is reported as 105.892%. With `Cc1nc(CNC(=O)N2CCSSCC2)cs1` [10-O18, N-[(2-methyl-1,3-thiazol-4-yl)methyl]-1,2,5-dithiazepane-5-carboxamide] the “% of control remaining” value was 110%. `Cc1ccc(Sc2ccc(NC(=O)CCl)cc2)c(C)c1` [4-I03, 2-chloro-N-{4-[(2,4-dimethylphenyl)sulfanyl]phenyl}acetamide] was tested, and the “% of control remaining” value was 101.763%. For `C=CC(=O)NCCc1nnc(-c2ccccc2)o1` [3-J09, N-[2-(5-phenyl-1,3,4-oxadiazol-2-yl)ethyl]prop-2-enamide], the “% of control remaining” value was 123.64%. `CC1CC(NC(=O)C(C)Cl)=NO1` (stereo not shown) [5-J21, 2-chloro-N-(5-methyl-4,5-dihydro-1,2-oxazol-3-yl)propanamide] was tested, and the “% of control remaining” value was 90.3461%. With `CCn1c2ccccc2c2cc(NC(=O)CCl)ccc21` [4-D06, 2-chloro-N-(9-ethyl-9H-carbazol-3-yl)acetamide] the “% of control remaining” value was 73.1777%. In the case of `Cc1ccccc1-n1c(C)cc(C(=O)CCl)c1C` [10-H20, 2-chloro-1-[2,5-dimethyl-1-(2-methylphenyl)-1H-pyrrol-3-yl]ethan-1-one], the “% of control remaining” value is reported as 118.75%. With `Cc1ccccc1NC(=O)C(C#N)=Cc1cc(C)n(CC(C)C)c1C` [8-D19, 2-cyano-3-[2,5-dimethyl-1-(2-methylpropyl)-1H-pyrrol-3-yl]-N-(2-methylphenyl)prop-2-enamide] the “% of control remaining” value was 139.419%. `C#CCOc1ccccc1C=C(C#N)C(=O)Nc1ccccc1F` [9-C10, 2-cyano-N-(2-fluorophenyl)-3-[2-(prop-2-yn-1-yloxy)phenyl]prop-2-enamide] was tested, and the “% of control remaining” value was 123.446%. `CCCCNC(=O)C(C#N)=Cc1ccsc1` [9-B13, N-butyl-2-cyano-3-(thiophen-3-yl)prop-2-enamide] was tested, and the “% of control remaining” value was 96.4794%. For `CC(C)NC(=O)C(C#N)=Cc1ccc(-c2ccc([N+](=O)[O-])cc2)s1` [9-B16, 2-cyano-3-[5-(4-nitrophenyl)thiophen-2-yl]-N-(propan-2-yl)prop-2-enamide], the “% of control remaining” value was 110.262%. `C=CC(=O)N1CCC(C(=O)NCC(C)c2ncc(C)s2)CC1` (stereo not shown) [3-P10, N-[2-(5-methyl-1,3-thiazol-2-yl)propyl]-1-(prop-2-enoyl)piperidine-4-carboxamide] was tested, and the “% of control remaining” value was 114.236%. `N#CC(=Cc1ccc(N2CCCCC2)cc1)C(=O)NC1CC1` [8-O04, 2-cyano-N-cyclopropyl-3-[4-(piperidin-1-yl)phenyl]prop-2-enamide] was tested, and the “% of control remaining” value was 115.851%. With `CCCCNC(=O)C(C#N)=Cc1ccc(Cl)cc1` [9-H13, N-butyl-3-(4-chlorophenyl)-2-cyanoprop-2-enamide] the “% of control remaining” value was 88.9888%. In the case of `COc1ccc(C=C(C#N)C(=O)Nc2ccccc2C)cc1` [8-P07, 2-cyano-3-(4-methoxyphenyl)-N-(2-methylphenyl)prop-2-enamide], the “% of control remaining” value is reported as 133.112%. With `CC(Cl)C(=O)NCC(=O)Nc1ccc2c[nH]nc2c1` (stereo not shown) [7-N11, 2-chloro-N-{[(2H-indazol-6-yl)carbamoyl]methyl}propanamide] the “% of control remaining” value was 91.3658%. `O=C(CCl)Cc1c(Cl)cccc1Cl` [10-K15, 1-chloro-3-(2,6-dichlorophenyl)propan-2-one] was tested, and the “% of control remaining” value was 99.0625%. `CC(Cl)C(=O)Nc1ccc(S(N)(=O)=O)cc1` (stereo not shown) [6-B06, 2-chloro-N-(4-sulfamoylphenyl)propanamide] was tested, and the “% of control remaining” value was 82.2927%. For `CC(Cl)C(=O)N1CCCC(c2nc(-c3cccc(F)c3)no2)C1` (stereo not shown) [6-N21, 2-chloro-1-{3-[3-(3-fluorophenyl)-1,2,4-oxadiazol-5-yl]piperidin-1-yl}propan-1-one], the “% of control remaining” value was 81.2683%. `Cc1cccc(C=C(C#N)C(=O)Nc2ccc(F)cc2)c1` [9-I19, 2-cyano-N-(4-fluorophenyl)-3-(3-methylphenyl)prop-2-enamide] was tested, and the “% of control remaining” value was 85.0936%. For `N#Cc1ccccc1N1C(=O)C=CC1=O` [10-B13, 2-(2,5-dioxo-2,5-dihydro-1H-pyrrol-1-yl)benzonitrile], the “% of control remaining” value was 122.188%. `CN(CCOc1ccc(Cl)cc1)C(=O)CCl` [5-D16, 2-chloro-N-[2-(4-chlorophenoxy)ethyl]-N-methylacetamide] was tested, and the “% of control remaining” value was 95.082%.
